“And” between values parts separate entries of the source, which are not always exact repeats. Identical values can stand only once. About 2,600 (0.72%) of roughly 360,000 compounds were called active. The inconclusive results got no clear call from the source; some entries with a clear call stand among them for comparison. Calls follow the shape of the dose curve; as a rule, active = well fitted inhibition curve with a large enough effect; inconclusive = small, poorly fitted or top-dose-only effect; inactive = no such curve, though single readings can be large or run the other way. Where the call is inconclusive, the potency comes from a doubtful curve fit. The source holds several records for some structures; these can differ, active in one and inactive in another.
Test: Primary qHTS for Inhibitors of ATXN expression; also: nearly all actives have a fitted effect of over 55% in size
Settings: HEK-293 ATXN2-luciferase reporter, luminescence, 24 h; activity change, negative = inhibition: at 57 µM (top of the series)
Outline: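 qHTS (up to 57 uM final) was run with 24 h compound exposure of reporter cells at 37 °C. Each well was multiplexed: SteadyGlo luminescence measured ATXN2-luciferase expression after a fluorogenic Gly-Phe-AFC viability readout (25 uM final).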
% is scaled to controls: 0 for no effect and ±100 for the full control effect; potency is read from the fitted curve at half-maximal effect; tags tell the direction and shape of the fitted curve.

Potency, inactive:
CN(c1ccccc1)S(=O)(=O)c1cccc(NC(=O)COc2cccc([N+](=O)[O-])c2)c1, c1ccc2c(c1)OC(CCCN1CCCCC1)c1ccccc1S2 (configuration not stated), Cc1cccc(C(O)c2ncc(-c3cccc(C(F)(F)F)c3)[nH]2)c1C (configuration not stated), CC1(C)CNc2cc(NC(=O)c3cccnc3NCc3ccncc3)ccc21, Cc1ccc2[nH]c(C)cc(=S)c2c1, CCS(=O)(=O)c1ncc(Cl)c(C(=O)Nc2ccc(S(=O)(=O)N3CCC(C)CC3)cc2)n1, Cc1ccc(CNC(=O)CCc2c(C)c3ccc(O)c(C)c3oc2=O)cc1, COc1ccc(N2CCN(C(=O)c3cnn(-c4ccc(F)cc4)c3-n3cccc3)CC2)cc1, CCN(CC)C(=O)c1[nH]cnc1C(=O)N[C@@H](Cc1ccccc1)C(=O)OCc1ccccc1, CC(C)CC(=O)Nc1nc2nc(-c3ccccc3)cc(=O)n2[nH]1, COc1ccc(-c2[nH]ncc2CN2CCC(C(=O)c3ccc(F)cc3)CC2)cc1, CC1(C)Cc2c(c(N3CCOCC3)nc3snc(N)c23)CO1, Cc1ccc(NC(=O)CSc2ncc(S(=O)(=O)c3ccc(C(C)C)cc3)c(=O)[nH]2)cc1C, CCN1C(=O)CSc2ccc(C(=O)NC3CCCCC3)cc21, CCC(c1nnnn1CCOC)N1CCN(c2cccc(C(F)(F)F)c2)CC1 (configuration not stated), Cc1snc(SCC(=O)N/N=C(\N)COc2cccc(C(F)(F)F)c2)c1C#N, CSc1ccc(/C=C(\C#N)C(=O)NC2CCCCC2C)cc1 (configuration not stated), Cc1cc(/C=C2\SC(=S)N(C)C2=O)c(C)n1-c1ccccc1O, CCOc1ccccc1NC(=O)CN(c1ccc(C)cc1)S(=O)(=O)c1c(C)noc1C, Cc1c(CCO)c(=O)[nH]n1C(=O)c1ccc(F)cc1, CCc1ccc(CNC(=O)CCCn2c(=O)c3cccn3c3cccnc32)cc1, Cc1ccc(Oc2ccc(S(=O)(=O)NCC(C)(C)N3CCOCC3)cc2)cc1, COc1ccc(CNCC(O)(c2ccc(F)cc2)c2ccc(F)cc2)cc1, COCCn1c(=O)c2c(nc3n2CCCN3CCc2ccc(OC)c(OC)c2)n(C)c1=O

Potency, active:
CC(=O)Nc1ccc(S(=O)(=O)N2CCC(c3nnc(-c4ccc(C)cc4)o3)CC2)cc1 20 µM, O=c1[nH]nc(OCCCc2ccc(Cl)cc2)c(NCc2cccnc2)c1Br 24.3 µM, Cn1cc(-c2[nH]c3cc(NC(=O)[C@H](N)C4CCCCC4)cc4c3c2C=NNC4=O)cn1 1.09 µM, CCN(CC)S(=O)(=O)c1ccc(NC(=O)Nc2cccc(C(F)(F)F)c2)cc1 20 µM, CN1OC[C@@H]2CN[C@H](c3ccc(-c4cc5ccccc5o4)cc3)C[C@@H]21 0.199 µM, COCCn1c2c([n+](Cc3cnccn3)c1C)C(=O)c1ccccc1C2=O 0.0544 µM, O=C(CCSc1nc2ccccc2s1)N/N=C/c1c(O)ccc2ccccc12 3.16 µM

Potency, inconclusive:
O=C(Nc1cc(C(F)(F)F)ccc1-n1cncn1)c1ccc([N+](=O)[O-])o1 14.1 µM [inhibitor, partial curve, poor fit], COc1ccc(CCNC(=O)CSc2cn(CCNC(=O)c3cccc(C(F)(F)F)c3)c3ccccc23)cc1OC 22.4 µM [inhibitor, single point], COc1ccc(-n2nnc3c(SCC(=O)NCC4CCCO4)ncnc32)cc1 (configuration not stated) 39.8 µM [inhibitor, single point], Cc1ccc(C)c(N2CCN(C(=O)CCS(=O)(=O)c3cc4c(cc3Cl)NC(=O)CO4)CC2)c1 39.8 µM [inhibitor, single point], Cc1ccc(-c2cc(C(=O)N3CCOCC3)no2)cc1 18.9 µM [inhibitor, single point], Cc1cccc(NS(=O)(=O)c2cccc(C(=O)NNC(=O)c3ccccc3O)c2)c1 31.6 µM [inhibitor, single point], CCOC(=O)C1=CCN(S(=O)(=O)c2ccccc2C)C1c1cccc(Br)c1 (configuration not stated) 11.2 µM [inhibitor, partial curve, poor fit], O=C1CCCc2cc(S(=O)(=O)N3CCCC(C(=O)Nc4ccc(F)c(Cl)c4)C3)ccc2N1 (configuration not stated) 25.1 µM [inhibitor, single point], Cc1ccc(-n2c(C)cc(/C=c3/sc4nc5ccccc5n4c3=O)c2C)cc1 0.631 µM [inhibitor, full curve], CSc1cccc(Nc2cc(C(=O)NCCc3ccc(Cl)cc3)c3ccccc3n2)c1 39.8 µM [inhibitor, single point], COc1ccc(OCC(=O)NNC(=O)c2ccccn2)cc1 35.5 µM [inhibitor, single point], O=C(NNc1ncc(C(F)(F)F)cc1Cl)c1c(Cl)cccc1Cl 15.8 µM [inhibitor, single point], C[C@H](CO)N1C[C@H](C)[C@@H](CN(C)C(=O)Nc2ccc(C(F)(F)F)cc2)Oc2ccc(NC(=O)Cc3ccccc3)cc2C1=O 31.6 µM [inhibitor, partial curve, poor fit], Cc1cc(C)c2nc(N3CCC(C(=O)N4CCN(C(=O)c5ccco5)CC4)CC3)sc2c1 8.91 µM [inhibitor, partial curve, poor fit], COc1ccc(CN2CCC2(C)C(=O)NCc2ccc3c(c2)OCO3)c2ccccc12 (configuration not stated) 28.2 µM [inhibitor, partial curve, poor fit], CCCCCCCCN1C(=O)[C@H](CC(=O)N2CCN(C(=O)C3CC3)CC2)C[C@@]2(C(=O)OC)CCCCC=C12 39.8 µM [inhibitor, single point], CC(C)c1ccc(NC(=O)Nc2nc(C(N)c3ccccc3)cs2)cc1 (configuration not stated) 39.8 µM [inhibitor, single point], CSc1cc(-c2ccccc2)n(Cc2c(Cl)cccc2Cl)c(=O)c1C#N 7.08 µM [inhibitor, partial curve, poor fit], CCOc1ccccc1CN(CCc1ccc2c(c1)OCO2)Cc1ccccn1 39.8 µM [inhibitor, partial curve, poor fit], COc1ccc(C(C)=O)cc1CC1(C)C(=O)Nc2ccc(-c3ccccc3OC)cc21 (configuration not stated) 20 µM [inhibitor, partial curve, poor fit], Cc1cc(C(=O)N2CCN(c3ccc([N+](=O)[O-])cc3)CC2)c(C)o1 14.1 µM [inhibitor, partial curve, poor fit], COc1ccc(NC(=O)C2Cc3c(-c4ccccc4Oc4ccccc4)ccnc3O2)cc1OC (configuration not stated) 17.8 µM [inhibitor, partial curve], CCc1ccc(C(=O)Nc2nc(C)cs2)s1 8.91 µM [inhibitor, single point], Nc1ncnc(Sc2ncccn2)c1[N+](=O)[O-] 37.7 µM [inhibitor, single point], O=C(Cc1ccc(S(=O)(=O)N2CCCCC2)cc1)NCc1ccc(Cl)cc1 15.8 µM [inhibitor, partial curve, poor fit], COc1cccc(N2CCN(C(=O)CCCn3c(=O)[nH]c4ccc(Br)cc4c3=O)CC2)c1 28.2 µM [inhibitor, single point], COC(=O)C1=C(C)NC(C)=C(C(=O)OCC(C)C)C1c1ccccc1[N+](=O)[O-] (configuration not stated) 35.5 µM [inhibitor, partial curve, poor fit] and 39.8 µM [inhibitor, single point], Cc1ccc2nc(-c3ccncc3)cc(C(=O)Nc3ccc(OC(F)F)cc3)c2c1 26.7 µM [inhibitor, partial curve, poor fit], Cc1ccc(C)c(N2CCN(C(=O)CCCN3C(=S)NC(C)(C)CC3C)CC2)c1 (configuration not stated) 21.2 µM [inhibitor, partial curve, poor fit], O=C1C(Br)=C(c2ccccc2)C(c2ccccc2)=C1c1ccccc1 28.2 µM [inhibitor, single point], CC(C)N(C(=O)[C@H]1C[C@H](CC(=O)NCc2ccco2)C(=O)N2CCc3c([nH]c4cc(-c5ccco5)ccc34)[C@]12C)C(C)C 39.8 µM [inhibitor, single point], CC(=O)Nc1ccc(Nc2nc(Cl)nc(Nc3ccc(NC(C)=O)cc3)n2)cc1 0.597 µM [inhibitor, partial curve, poor fit], COc1ccc(OC)c(CNS(=O)(=O)c2ccc3[nH]c4c(c3c2)CCCCC4)c1 35.5 µM [inhibitor, single point], CNC(=S)Nc1ccc(N2CCN(c3ccc(C(F)(F)F)cn3)CC2)nc1 3.16 µM [inhibitor, full curve, poor fit]

Activity change, negative = inhibition, inconclusive:
COc1ccc(-c2cc(C(F)(F)F)n3nc(C(=O)Nc4c(C)n(C)n(-c5ccccc5)c4=O)cc3n2)cc1 -48.2% [inhibitor], CC(C)(C)c1ccc(Cn2c(=O)cnc3ccccc32)cc1 -49% [inhibitor]
